Data on 40 compounds can be found in PubChem BioAssay (NCATS).

The list shows a part of the results. The main result of the screen is listed elsewhere. These columns were measured beside it and carry no call. Most of these compounds were active or inconclusive in the main read-out, so they are no random draw. Potencies come from curve fits of mixed quality, noted in brackets.

This test is described as follows: qHTS Assay for Lipid Storage Modulators (AID 1519). Conditions: Drosophila S3 cells, BODIPY lipid droplet/cell ratio, laser cytometry, cells loaded with oleic acid. The essentials: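 Cells seeded at 5,000 per well were treated with compounds over a concentration series and loaded with oleic acid (400 uM, as added). Lipid droplet fluorescence (488 nm excitation, 500-530 nm channel) was read by laser-scanning cytometry and normalized to 20 uM Triacsin C.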
On the technique in general: In qHTS, concentration-response curves come from the screen itself.

Setting [1] is: measured here: cell count channel max response.
Setting [2] is: measured here: cell number channel AC50.
[3] abbreviates: measured here: lipid (BODIPY) channel AC50.
Where [4] appears, read: measured here: lipid channel max response.
Tags tell the direction and shape of the fitted curve.

On to `COc1ccc2c(=O)ccoc2c1`, for which the max response turned out to be 21.2% under setting [1] and 34.6% under setting [4]. The AC50 (usually the midpoint of the concentration-response curve, whichever way the signal moves) runs as follows: under setting [2], 0.0355 µM [rising, full curve, poor fit]; under setting [3], 10 µM [rising, partial curve, poor fit].
On to `COc1ncc2nc(-c3cn(C)c4ccccc34)c(=O)n(-c3ccccc3)c2n1`, for which the max response by setting is: under setting [1], 36.6%; under setting [4], 30.3%. The AC50 under setting [2] was 25.1 µM [rising, single point] and the concentration at half-maximal activity (AC50) under setting [3] was 39.8 µM [rising, single point].
With `COc1ccc(NC(=O)N2CC3(CCN(C(=O)c4cccc(F)c4)CC3)C2)cc1`, the max response by setting is: under setting [1], 16%; under setting [4], 24.9%. The half-maximal activity concentration (AC50) under setting [2] is 0.0891 µM [rising, full curve, poor fit] and the AC50 under setting [3] was 0.0398 µM [rising, full curve, poor fit].
As for `C[C@@H]([C@H](O)c1ccc(O)cc1)N1CCC(Cc2ccccc2)CC1`, the max response by setting is: under setting [1], 39.2%; under setting [4], 53.1%. The AC50 by setting is: under setting [2], 31.6 µM [rising, partial curve, poor fit]; under setting [3], 31.6 µM [rising, partial curve, poor fit].
In the case of `COc1c(-c2coc3cc4c(cc3c2=O)CC(OC(C)=O)C(C)(C)O4)ccc2c1C=CC(C)(C)O2` (stereo not given), the max response under setting [1] was -35.1% and the max response under setting [4] is -104%. Further, the AC50 is 2.24 µM [falling, full curve] under setting [2] and 2.24 µM [falling, full curve] under setting [3].
With `O=c1cnc2cnc(Oc3ccccc3)nc2n1C[C@H]1CCCO1`, the max response under setting [1] amounted to 24% and the max response under setting [4] is 30.4%. Moreover, the AC50 is, setting by setting: under setting [2], 0.00501 µM [rising, full curve, poor fit]; under setting [3], 0.00562 µM [rising, full curve, poor fit].
For the compound `COc1ccc2c(=O)c(OC)c(-c3ccccc3)oc2c1`, the max response reads like this: under setting [1], 8.5%; under setting [4], 14.5%. Moreover, the AC50 by setting is: under setting [2], 0.0398 µM [rising, full curve, poor fit]; under setting [3], 0.0316 µM [rising, full curve].
Consider `COCCn1c(=O)c(CCc2ccccc2)nc2cnc(N3CCOCC3)nc21`, for which the max response runs as follows: under setting [1], 33.5%; under setting [4], 44.1%. The AC50 reads like this: under setting [2], 3.55 µM [rising, full curve]; under setting [3], 3.16 µM [rising, full curve].
For the compound `COc1cccc(-c2cc(NCc3cccnc3)ncn2)c1`, the max response under setting [1] is 41.2% and the max response under setting [4] came out at 49.8%. Besides, the AC50 under setting [2] is 3.16 µM [rising, full curve] and the AC50 under setting [3] is 2.82 µM [rising, full curve].
In the case of `CCN(CC)CCOC(=O)c1cc(Cl)c(N)cc1OC`, the max response is, setting by setting: under setting [1], 52.3%; under setting [4], 55.1%. In addition, the AC50 was 35.5 µM [rising, partial curve, poor fit] under setting [2] and 35.5 µM [rising, partial curve, poor fit] under setting [3].
For `COCCn1c(=O)c(CCc2ccccc2)nc2cnc(OC)nc21`, the max response was determined as 8.85% under setting [1] and 20.1% under setting [4]. Besides, the concentration at half-maximal activity (AC50) is 1.41 µM [rising, full curve] under setting [2] and 0.891 µM [rising, full curve] under setting [3].
Consider `COc1ncc2nc(C)c(=O)n(CCC#N)c2n1`, for which the max response by setting is: under setting [1], 41.6%; under setting [4], 54%. Also, the concentration at half-maximal activity (AC50) runs as follows: under setting [2], 1 µM [rising, full curve, poor fit]; under setting [3], 0.891 µM [rising, full curve].
Consider `COc1cccc(-c2nccc(NCc3cnc(C)cn3)n2)c1`, for which the max response was determined as 45.5% under setting [1] and 46.8% under setting [4]. Further, the AC50 is, setting by setting: under setting [2], 1.26 µM [rising, full curve]; under setting [3], 1 µM [rising, full curve].
With `O=c1[nH]c2cc(Cl)ccc2c(O)c1-c1cccc(Oc2ccccc2)c1`, the max response reads like this: under setting [1], 71%; under setting [4], 95.8%. The AC50 under setting [2] is 31.6 µM [rising, partial curve, poor fit] and the concentration at half-maximal activity (AC50) under setting [3] was 31.6 µM [rising, partial curve].
As for `COCCn1c(=O)c(C)nc2cncnc21`, the max response is, setting by setting: under setting [1], 42.6%; under setting [4], 54.1%. The half-maximal activity concentration (AC50) under setting [2] is 11.2 µM [rising, partial curve, poor fit] and the AC50 under setting [3] was 10 µM [rising, partial curve].
`CN(C)c1nc(-c2cccnc2)nc2ccccc12`: the max response under setting [1] is 37.5% and the max response under setting [4] was found to be 45.7%. Further, the AC50 is, setting by setting: under setting [2], 0.398 µM [rising, full curve]; under setting [3], 0.355 µM [rising, full curve].
Take `O=c1c(-c2ccccc2)nc2cnc(N3CCOCC3)nc2n1Cc1ccc(F)cc1`: the max response under setting [1] was 28.3% and the max response under setting [4] was 22.8%. The AC50 by setting is: under setting [2], 2.82 µM [rising, full curve, poor fit]; under setting [3], 3.98 µM [rising, partial curve].
For the compound `Clc1cccc(C=NC=Nc2cccc(Cl)c2)c1`, the max response reads like this: under setting [1], 73.6%; under setting [4], 101%. The concentration at half-maximal activity (AC50) by setting is: under setting [2], 2.51 µM [rising, full curve]; under setting [3], 2.51 µM [rising, full curve].
Consider `Cc1cc(NC(=O)C2=C(O)c3ccccc3S(=O)(=O)N2C)no1`, for which the max response by setting is: under setting [1], 31.1%; under setting [4], 54.3%. The AC50 by setting is: under setting [2], 25.1 µM [rising, partial curve, poor fit]; under setting [3], 35.5 µM [rising, single point].
With `COc1ccc([N+](=O)[O-])c2c1CCN2C(=O)CC[C@H](N)C(=O)O`, the max response under setting [1] turned out to be 43.3% and the max response under setting [4] came to 47.1%. Also, the half-maximal activity concentration (AC50) runs as follows: under setting [2], 35.5 µM [rising, single point]; under setting [3], 35.5 µM [rising, single point].
Take `O=c1c(CCc2ccccc2)nc2cnc(N3CCOCC3)nc2n1C1CC1`: the max response by setting is: under setting [1], 25.6%; under setting [4], 31.5%. Besides, the AC50 by setting is: under setting [2], 0.316 µM [rising, full curve, poor fit]; under setting [3], 0.398 µM [rising, full curve, poor fit].
With `COCCn1c(=O)c(CCc2ccccc2)nc2cnc(Oc3cccc(Cl)c3)nc21`, the max response is, setting by setting: under setting [1], 20.1%; under setting [4], 28.5%. Moreover, the AC50 is 3.55 µM [rising, partial curve] under setting [2] and 2.24 µM [rising, partial curve] under setting [3].
As to `COCCn1c(=O)c(-c2cccc(F)c2)nc2cncnc21`, the max response reads like this: under setting [1], 42.2%; under setting [4], 45.1%. The AC50 under setting [2] is 6.31 µM [rising, partial curve] and the concentration at half-maximal activity (AC50) under setting [3] was 11.2 µM [rising, partial curve, poor fit].
For `O=S(=O)(c1ccccc1)N1CCC2(CC1)CN(C(c1ccccc1)c1ccccc1)C2`, the max response reads like this: under setting [1], 34.3%; under setting [4], 46.4%. Besides, the AC50 is 11.2 µM [rising, partial curve] under setting [2] and 14.1 µM [rising, partial curve] under setting [3].
As to `Cc1noc(C)c1-c1nccc(N2CCN(C)CC2)n1`, the max response amounted to 18% under setting [1] and 22.5% under setting [4]. Also, the concentration at half-maximal activity (AC50) by setting is: under setting [2], 1.12 µM [rising, full curve, poor fit]; under setting [3], 1.78 µM [rising, partial curve, poor fit].
As to `CN(Cc1ccco1)c1cc(-c2ccccc2C(F)(F)F)ncn1`, the max response under setting [1] was 33.6% and the max response under setting [4] was determined as 38.8%. For the same compound, the concentration at half-maximal activity (AC50) reads like this: under setting [2], 6.31 µM [rising, full curve]; under setting [3], 5.01 µM [rising, full curve].
For the compound `COc1cccc(Cn2c(=O)c(-c3cn(C)c4ccccc34)nc3cnc(N4CCOCC4)nc32)c1`, the max response by setting is: under setting [1], 38.3%; under setting [4], 42.1%. Further, the half-maximal activity concentration (AC50) was 10 µM [rising, partial curve] under setting [2] and 11.2 µM [rising, partial curve] under setting [3].
For `COc1cccc(-c2cc(NCc3ccccc3OC)ncn2)c1`, the max response is 9.46% under setting [1] and -5.38% under setting [4]. Moreover, the AC50 by setting is: under setting [2], 0.2 µM [rising, full curve]; under setting [3], 0.2 µM [rising, full curve].
With `COc1cccc(Cn2c(=O)c(-c3cccc(F)c3)nc3cncnc32)c1`, the max response runs as follows: under setting [1], 27.7%; under setting [4], 40%. Also, the AC50 by setting is: under setting [2], 0.355 µM [rising, full curve]; under setting [3], 0.316 µM [rising, full curve].
Consider `CC(=O)NCCNc1nc(-c2c(C)noc2C)nc2ccccc12`, for which the max response under setting [1] was 37.2% and the max response under setting [4] is 43.6%. Further, the AC50 under setting [2] is 6.31 µM [rising, full curve] and the concentration at half-maximal activity (AC50) under setting [3] is 3.98 µM [rising, full curve].
With `O=c1c(-c2cccs2)nc2cnc(Oc3cccc(Cl)c3)nc2n1C[C@H]1CCCO1`, the max response by setting is: under setting [1], 12.2%; under setting [4], -48.7%. For the same compound, the AC50 runs as follows: under setting [2], 4.47 µM [rising, partial curve]; under setting [3], 22.4 µM [falling, single point].
With `CC1(COc2ccc(C[C@H]3SC(=O)NC3=O)cc2)CCCCC1`, the max response under setting [1] turned out to be 44.4% and the max response under setting [4] was 46.1%. The AC50 was 1.41 µM [rising, full curve, poor fit] under setting [2] and 1.41 µM [rising, full curve, poor fit] under setting [3].
For the compound `Cc1cnc(CNc2cc(-c3c(C)noc3C)ncn2)cn1`, the max response was found to be 40.9% under setting [1] and 52.4% under setting [4]. The AC50 runs as follows: under setting [2], 7.94 µM [rising, partial curve]; under setting [3], 10 µM [rising, partial curve, poor fit].
Take `CN(C)c1ncc2nc(-c3cccs3)c(=O)n(-c3ccccc3)c2n1`: the max response reads like this: under setting [1], 99%; under setting [4], -60.5%. In addition, the AC50 is 15.8 µM [rising, partial curve] under setting [2] and 39.8 µM [falling, single point] under setting [3].
As to `C[C@H](C(=O)O)c1cccc(C(=O)c2ccccc2)c1`, the max response under setting [1] came to 34.9% and the max response under setting [4] came to 55.7%. Besides, the AC50 is 39.8 µM [rising, single point] under setting [2] and 39.8 µM [rising, partial curve, poor fit] under setting [3].
`Cc1c[nH]c(=O)n(CCCN2CCN(c3ccccc3OCC(F)(F)F)CC2)c1=O`: the max response reads like this: under setting [1], 67.4%; under setting [4], 88.1%. Also, the AC50 runs as follows: under setting [2], 17.8 µM [rising, partial curve, poor fit]; under setting [3], 28.2 µM [rising, partial curve, poor fit].
As for `CN(C)c1ccc(-c2nc(Nc3ccncc3)c3ccccc3n2)cc1`, the max response is -69.5% under setting [1] and -89.5% under setting [4]. In addition, the half-maximal activity concentration (AC50) is 20 µM [falling, partial curve] under setting [2] and 14.1 µM [falling, partial curve] under setting [3].
Regarding `c1nc(N2CCOCC2)c2cc(-c3ccoc3)ccc2n1`, the max response under setting [1] turned out to be 36.2% and the max response under setting [4] is 30.8%. The concentration at half-maximal activity (AC50) reads like this: under setting [2], 11.2 µM [rising, partial curve]; under setting [3], 10 µM [rising, partial curve].
With `O=C(/C=C/c1ccccc1)c1cccs1`, the max response was 99.4% under setting [1] and 73.4% under setting [4]. For the same compound, the concentration at half-maximal activity (AC50) under setting [2] was 25.1 µM [rising, partial curve] and the concentration at half-maximal activity (AC50) under setting [3] is 8.91 µM [rising, full curve].
For `CC(=O)SC1CC2=CC(=O)CC[C@]2(C)C2CC[C@@]3(C)[C@@H](CC[C@@]34CCC(=O)O4)C12` (stereo not given in full), the max response was -30.3% under setting [1] and -30.7% under setting [4]. The half-maximal activity concentration (AC50) by setting is: under setting [2], 0.126 µM [falling, full curve, poor fit]; under setting [3], 0.141 µM [falling, full curve, poor fit].
